Measurements published in PubChem BioAssay AID1794842 (National Center for Advancing Translational Sciences (NCATS), 2023).
Screen size: about 2,800 compounds; fewer than 10 were called active. The call rests on the fitted dose curve; in most records, active means well fitted curve in the direction sought with a large enough effect; inconclusive means small, poorly fitted or top-dose-only effect, or another doubt; inactive means no such curve, though single readings can be large or run the other way. The list shows a part of the results.

The compounds below were run against Metallo-beta-lactamase type 2 (Klebsiella pneumoniae) (UniProt C7C422) (assay: qHTS to identify inhibitors of the New Delhi Metallo-beta-lactamase (NDM): Meropenem screen against the machine-based learning selections.). Conditions: Purified NDM-1, meropenem hydrolysis, absorbance 300 nm; at 38.4 µM (top of the series) unless noted.
In short: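 NDM-1 (2 nM final) in 50 mM HEPES pH 7.0, 1 uM Zn2SO4, 0.01% Tween20 was preincubated with compounds for >30 min. Nitrocefin (16.7 uM final) was read at 485 nm after 15 min, and meropenem (50 uM final) at 300 nm after 30 min.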
Further: % of control where 0% means no effect.

Sequence of UniProt C7C422 (C7C422 whole entry, looked up): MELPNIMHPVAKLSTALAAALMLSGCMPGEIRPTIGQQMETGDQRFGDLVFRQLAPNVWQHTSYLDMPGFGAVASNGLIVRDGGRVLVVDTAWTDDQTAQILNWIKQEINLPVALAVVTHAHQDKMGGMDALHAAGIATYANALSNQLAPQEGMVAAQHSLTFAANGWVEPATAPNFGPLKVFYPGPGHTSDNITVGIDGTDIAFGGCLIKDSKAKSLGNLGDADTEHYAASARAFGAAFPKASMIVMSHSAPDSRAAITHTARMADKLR

Row | Compound | activity change, negative = inhibition
1 | COCCn1c(CO)nnc1C1CC(NC(=O)c2ccc(F)cc2F)C1 (stereo not given) | inactive: 1.77%
2 | COc1ccc(CC(=O)N2CCC(N3CC4CC(C3)[C@H]3CCCC(=O)N3C4)CC2)cc1 (stereo not given in full) | inactive: 0.629%
3 | CC[C@@]1(C(=O)O)C[C@H](C(=O)NC(CO)CO)[C@H](c2ccc(OC)cc2)N1C | inactive: 24%
4 | O=C(c1ccc2[nH]ccc2c1)N1CCC2(CC1)N=C(c1ccc(Br)cc1)NO2 | inactive: -0.0584%
5 | CNc1ccc(-c2noc([C@@H]3CCCN3Cc3cccc(OC)c3)n2)cn1 | inactive: 11.6% [at 57.5 µM]
6 | COC[C@H]1CCCN1Cc1nc(C2(O)CCN(Cc3ccccc3O)CC2)cs1 | inactive: 38.3% [at 57.5 µM]
7 | CO[C@H]1[C@H](NC(=O)COc2ccccc2)c2ccccc2C12CCNCC2 | inactive: 1.6%
8 | Cc1ccc(-c2noc([C@@H]3Cc4nc[nH]c4CN3Cc3ccccc3)n2)cc1 | inactive: 51.9% [at 57.5 µM]
9 | O=C(O)Cn1ccc2cc(OCc3cccc(-c4ccc(F)cc4F)c3)cnc21 | inactive: 13.2% [at 57.5 µM]
10 | Cc1noc(C)c1C(=O)N[C@H]1[C@H](O)[C@H](O)C[C@@H]1c1cccnc1 | inactive: 0.0391% [at 57.5 µM]
11 | CC(=O)N1C[C@@H]2CCCN3CCC[C@@H]([C@H]23)[C@H]1CCCC(=O)N(C)Cc1ccc(N2CCOCC2)cc1 | inactive: 0.228%
12 | COc1ccc([C@H]2C[C@@H](O)[C@@H](O)[C@@H]2NC(=O)C2CCC2)cc1 | inactive: -1.07% [at 57.5 µM]
13 | Cc1ccc(CN2C(=O)[C@@H]3C[C@@H](O)CN3C3(CN(C4Cc5ccccc5C4)C3)C2=O)o1 | inactive: 4.1% [at 57.5 µM]
14 | O=c1c2nc(-c3ccc(O)c(F)c3)ccc2ncn1-c1ccc(F)cc1F | inactive: -2.92% [at 57.5 µM]
15 | OC[C@H]1C[C@@H](NCc2cccc3c2OCO3)[C@H](O)[C@@H]1O | inactive: 7.96% [at 76.7 µM]
16 | Cn1ccc2c(C(=O)NCCc3cnc[nH]3)nc(-c3ccc([S+](C)(=O)[O-])cc3)cc21 | inactive: 25.8% [at 57.5 µM]
17 | COc1cccc(CN2CCOC[C@H](Oc3cccnc3)C2)c1 | inactive: 1.48% [at 57.5 µM]
18 | OC[C@@H]1CN(c2ccc(-c3nc(-c4cccc(C(F)(F)F)c4)no3)cn2)C[C@H]1CO | inactive: 0.088%
19 | CN1C[C@H](NCc2cccc(Cl)c2)CCC[C@@H](C(=O)N(C)Cc2cccnc2)CC1=O | inactive: 1.33%
20 | O=C(c1csc(Cc2ccccc2)n1)N1CC[C@H](CO)[C@@H](O)C1 | inactive: 0.0675%
21 | COc1ccc(-c2cccc(CCOc3cnc4c(ccn4CC(=O)O)c3)c2)c(C)c1 | inactive: 17.7% [at 57.5 µM]
22 | Cc1ccc2c(c1)nc1n2[C@@H](CNC(=O)c2cccnc2)COC1 | inactive: -0.8% [at 57.5 µM]
23 | COC(=O)[C@@H]1Cc2c([nH]c3ccccc23)[C@H]2C[C@@H](NCCN(C)C)C[C@@H](c3cccc(Cl)c3)N21 | inactive: -2.26%
24 | Cc1ccc(CN2CC[C@@H]3[C@H]2C(=O)NC[C@H](CCC(=O)N2CC[C@@H](O)C2)N3C)cc1 | inactive: 4.68% [at 57.5 µM]
25 | CC(=O)Nc1ccc(CN[C@@H]2CO[C@H](CNS(C)(=O)=O)[C@H]2O)cc1 | inactive: -1.28% [at 57.5 µM]

Row | Compound | activity change, negative = inhibition
26 | C[C@@]1(O)CCN(C(=O)CN)C[C@@H]1Cc1ccccc1 | inactive: 7.56%
27 | COCCCNC(=O)C1CC(=O)N(c2n[nH]c3cccc(F)c23)C1 (stereo not given) | inactive: 5.7%
28 | Oc1cccc(CN2CCCC23CCN(c2ccc(C(F)(F)F)cn2)CC3)c1 | inactive: -0.547%
29 | O=C(N[C@H]1CCN2C(=O)c3ccccc3NC(=O)[C@@H]2C1)C1CCCC1 | inactive: 0.219% [at 57.5 µM]
30 | COc1ccc(CC(=O)N2CC[C@@H](CC(=O)O)[C@@H](CCN(CCN3CCOCC3)c3ccccc3)C2)cc1 | inactive: 8.16%
31 | Clc1cc(NC2CCOCC2)n2nccc2n1 | inactive: 4.93% [at 57.5 µM]
32 | O=C(NCCc1ccc(Cl)cc1)c1nc(-c2ccc(F)cc2)c2ccccn12 | inactive: 2.16%
33 | C[C@H](O)c1onc(-c2ccc(Cl)cc2)c1C(=O)NC1CCC1 | inactive: -0.707% [at 57.5 µM]
34 | Cc1noc([C@@H](C)NS(=O)(=O)c2ccc(Cl)cc2)c1C(=O)O | inactive: 5.22% [at 57.5 µM]
35 | O=C(NCc1cccnc1)c1nc(-c2ccccc2)cc2[nH]ccc12 | inactive: 1.32% [at 57.5 µM]
36 | Cn1cc(CNCC2(COc3cccnc3)C[C@@H](O)[C@@H](O)C2)c2ccccc21 (stereo not given in full) | inactive: 51.9%
37 | COc1ccccc1-c1ccc2ncc(Nc3ccc(CCO)cc3)n2n1 | inactive: 14.9% [at 57.5 µM]
38 | O=C(N[C@@H]1C[C@H](Cn2cc(C3CC3)nn2)[C@@H](O)[C@H]1O)c1cncnc1 | inactive: 47.4% [at 57.5 µM]
39 | Cc1noc(C)c1[S+](=O)([O-])N1CCC2(CC1)CC(=O)c1ccccc1O2 | inactive: 2.67%
40 | O=C(NCC1CCOCC1)Nc1cc(F)c(F)c(F)c1 | inactive: -0.795%
41 | O=c1c2nc(-c3cccc(O)c3)ccc2ncn1C1CC1 | inactive: 29.4% [at 76.7 µM]
42 | COc1ccccc1-c1nnc([C@H]2CCN(Cc3ccccc3O)C2)o1 | inactive: 31.8% [at 57.5 µM]
43 | O=C(NCc1ccc2c(c1)OCO2)C1CCN(c2cn[nH]c(=O)c2)C1 (stereo not given) | inactive: 7.33%
44 | O=C([C@@H]1C[C@H](F)CN1C(=O)NC1CCCC1)N1CCc2ccccc2C1 | inactive: 2.82%
45 | COC[C@H]1C[C@@H](NC(=O)C2CCOCC2)[C@H](O)[C@@H]1O | inactive: 19.1% [at 76.7 µM]
46 | O=C(CC(c1cccc(O)c1)c1ccccc1Cl)NCc1cccnc1 (stereo not given) | inactive: 53%
47 | O=C(NC1C[C@H]2CC[C@@H](C1)N2C(=O)c1ccn[nH]1)c1ccncc1 (stereo not given in full) | inactive: -0.927%
48 | CCc1nc2c(c(-c3ccc(Cl)cc3)n1)CN([S+](=O)([O-])c1ccc(C)cc1)CC2 | inactive: 1.22%
49 | CC(C)c1cc(CN(C)Cc2cn[nH]c2-c2ccc(F)cc2)no1 | inactive: 1.33%
50 | CC1=C[C@@H](CO)[C@H](C(C)C)C[C@H]1Cc1nnc(Cc2c[nH]c3ccccc23)o1 | inactive: -0.951% [at 57.5 µM]

Row | Compound | activity change, negative = inhibition
51 | COc1ccc(CNC(=O)C[C@@H]2O[C@H](CNC(=O)NC(C)C)[C@@H](O)[C@H]2O)cc1 | inactive: 55.8% [at 57.5 µM]
52 | CN(C)[C@H]1CCN(C(=O)Cc2cn(C)c3ccccc23)C[C@H]1CCC(=O)O | inactive: -1.41%
53 | Cc1ccc(C(=O)N2CC[C@@H]3CN(S(C)(=O)=O)[C@@H]3C2)c(=O)[nH]1 | inactive: 4.02%
54 | O=C(NC1CCC(n2cnnc2)CC1)c1ccc(Cn2cnnn2)cc1 (stereo not given) | inactive: -0.42%
55 | Cc1ccc2nc(C)cc(C(=O)N3CCC(c4cc(CC(=O)O)[nH]n4)CC3)c2c1 | inactive: 82.3%
56 | OC1CC([C@@H](Cc2ccccn2)NC2CCC3(CCNCC3)CC2)C1 (stereo not given in full) | inactive: 39.1%
57 | O=C(N[C@H]1CCN2C(=O)c3cc(-c4ccc(F)cc4F)ccc3NC(=O)[C@H]12)c1cccs1 | inactive: 2.94%
58 | COc1ccc2nc([C@H]3CCN(C4CCN(C)CC4)C3)[nH]c2c1 | inactive: 4.12% [at 57.5 µM]
59 | CC(=O)c1ccc(NC(=O)N[C@H]2CCN3C(=O)[C@@H](Cc4ccccc4)NC(=O)[C@H]23)cc1 | inactive: 18% [at 57.5 µM]
60 | COc1ccc(CN2CCC[C@H]2c2nc(-c3cncnc3N)no2)c(O)c1 | inactive: 9.36% [at 57.5 µM]
61 | c1cncc(Nc2cc3c(cn2)CN(Cc2cccs2)CCN3)c1 | inactive: 14% [at 57.5 µM]
62 | O=C(NCc1cccnc1)[C@@H]1C[C@@H](c2ccc(F)cc2)N(Cc2ccccc2)C1 | inactive: -0.331% [at 57.5 µM]
63 | COc1ccc(CCN(Cc2ccncc2)C(=O)CC2COCCN2)cc1 (stereo not given) | inactive: 66.9%
64 | Fc1ccc(-c2ccc3ncc(Nc4ccccn4)n3n2)cc1 | inactive: 13.9% [at 57.5 µM]
65 | CCn1ccc2cc(C(=O)N3CCC(=O)N(CC4CC4)C(C(C)C)C3)ccc21 (stereo not given) | inactive: -2.06%
66 | COC(=O)c1ccc2nc(C[C@@H]3C[C@@H](C(C)C)[C@H](CN(C)C)C=C3C)[nH]c2c1 | inactive: -3.18% [at 57.5 µM]
67 | CS(=O)(=O)N1CCCC(c2nc(-c3ccccc3)no2)CCNC(=O)CC1 (stereo not given) | inactive: 0.558%
68 | C[C@]1(CO)[C@H]2Cc3sc(NC(=O)c4ccc(F)cc4)nc3[C@@H](CC(=O)Nc3ccccc3)[C@]2(C)CC[C@H]1O | inactive: 1.39%
69 | NC(=O)c1ccc(Nc2cnc3ccc(-c4ccccc4)nn23)cc1 | inactive: 18.6% [at 57.5 µM]
70 | NCCn1cc(C(=O)NCCS(=O)(=O)N2CCCC2)nn1 | inactive: -0.385%
71 | CC(=O)NC1(C)CCCN(Cc2cc(-c3ccccc3)cs2)C1 (stereo not given) | inactive: -0.985% [at 57.5 µM]
72 | O=C(O)c1ccc(-c2ncc3cnc(-c4cccc(F)c4)cn23)cc1 | inactive: 67.6% [at 57.5 µM]
73 | Cc1cccc(-n2cc(CN3CCN(c4cc(N)nc(N)n4)CC3)cn2)c1 | inactive: 1.22%
74 | CCNC(=O)N1CC[C@@H](CC(=O)O)[C@@H](CC2=NCCc3ccc(C)cc32)C1 | inactive: 13% [at 57.5 µM]
75 | O[C@@H]1[C@@H](Cn2cc(-c3cccnc3)nn2)C[C@@H](NCc2ccc(F)cc2)[C@@H]1O | inactive: 52.8%
